Hit rate of the full screen: of about 48,000 compounds, about 550 (1.1%) were called active. Not shown: some 4% with an inconclusive outcome. Cut-off read from the data, not from the text of the source: active = potency below about 15 µM; inconclusive = mostly about 16 µM to 33 µM; inactive = weaker than that. The list shows a part of the results.
Each compound was assayed against Lysosomal acid glucosylceramidase (Homo sapiens) (UniProt P04062) (assay: Glucocerebrosidase). Details: purified enzyme, resorufin glucoside fluorescence (screen aimed at inhibitors), 20 min; series mostly up to 77 µM.
Sequence of UniProt P04062 (P04062 whole entry, looked up): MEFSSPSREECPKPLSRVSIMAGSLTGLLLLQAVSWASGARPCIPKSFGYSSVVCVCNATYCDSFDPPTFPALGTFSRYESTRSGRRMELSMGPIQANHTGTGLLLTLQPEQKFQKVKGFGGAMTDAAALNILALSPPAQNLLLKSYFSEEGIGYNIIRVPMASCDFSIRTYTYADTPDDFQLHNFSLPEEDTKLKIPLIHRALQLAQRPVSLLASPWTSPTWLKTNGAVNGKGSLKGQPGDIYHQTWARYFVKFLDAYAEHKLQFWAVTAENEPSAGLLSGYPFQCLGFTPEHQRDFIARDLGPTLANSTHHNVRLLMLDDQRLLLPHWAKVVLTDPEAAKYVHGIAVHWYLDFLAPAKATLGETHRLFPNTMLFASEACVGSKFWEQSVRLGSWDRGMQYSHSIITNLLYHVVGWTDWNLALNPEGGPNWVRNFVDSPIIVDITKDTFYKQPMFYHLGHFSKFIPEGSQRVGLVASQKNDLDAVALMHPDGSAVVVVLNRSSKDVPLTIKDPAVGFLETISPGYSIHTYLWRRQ
Procedure, shortened: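 Normal human glucocerebrosidase (0.2 nM final) was assayed with resorufin β-D-glucopyranoside (30 uM final) in 50mM citric acid/KH2PO4, 10mM sodium taurocholate, 0.01% tween-20, pH 5.9. Compounds were titrated; fluorescence (Ex 548, Em 600) read after 20 min at RT.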
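Note: the screen sought inhibitors.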
Potency is the fitted concentration of half-maximal effect.

Potency, inactive:
CCOC(=O)N1CCN(C(=O)CCc2c(C)nc3c(c(C)nn3-c3ccc(C)c(C)c3)c2C)CC1 > 76.9 µM
O=C(O)C1C2C=CC3(CN(Cc4ccccn4)C(=O)C13)O2 (stereo not drawn) > 76.9 µM
CCOC(=O)CCn1nnc(N)n1
COc1ccc(C2C(C(=O)OCC(=O)N3CCCCC3)CCC(=O)N2c2ccc(OC)cc2)cc1 (stereo not drawn) > 76.9 µM
COC(=O)C1CCN(C(=O)NC2CCCCC2)CC1 > 76.9 µM
O=C(CSc1nc2c(c(=O)n1-c1ccc(Br)cc1)SCC2)NCC1CCCO1 (stereo not drawn) > 76.9 µM
CCC(C)c1c(O)nc(SCc2ccccc2)[nH]c1=O (stereo not drawn) > 76.9 µM
Cc1ccc(N2CC(C(=O)NCc3ccccn3)CC2=O)cc1 (stereo not drawn) > 76.9 µM
COc1ccccc1N=c1oc2cc(O)ccc2cc1C(=O)NCC1CCCO1 (stereo not drawn) > 76.9 µM
CC1Cc2ccccc2N1C1=NS(=O)(=O)c2ccccc21 (stereo not drawn) > 76.9 µM
CN(C)CC(=O)N1c2ccccc2CCc2ccc(NC(=O)c3ccc(N)cc3)cc21 > 76.9 µM
COc1ccc(-c2nnn(CC(=O)Nc3sc4c(c3C#N)CCCC4)n2)cc1 > 76.9 µM
C=CCn1c(SCC(=O)C(C)(C)C)nnc1-c1ccccn1 > 76.9 µM
CC(=O)Nc1ccc(S(=O)(=O)NC2(C(F)(F)F)NC(=O)N(C3CCCC3)C2=O)cc1 (stereo not drawn) > 76.9 µM
COc1ccc(-c2nnc3ccc(SCC(N)=O)nn23)cc1OC > 76.9 µM
Cc1nc(NCCCn2ccnc2)c2ccccc2n1 > 76.9 µM
O=P(O)(O)CCP(=O)(c1ccccc1)c1ccccc1 > 76.9 µM
O=S(=O)(NCCc1ccncc1)c1cc(Br)ccc1F > 76.9 µM
Cc1nc(NC(=O)CCC(=O)O)sc1C(=O)N(C)C > 76.9 µM
CCS(=O)(=O)NCC(c1cccnc1)N1CCN(c2ccccc2F)CC1 (stereo not drawn) > 76.9 µM
CC1CCN(C(=O)CSc2nc(N)cc(N)n2)CC1 > 76.9 µM
O=C(CN1CCN(c2ncc(C(F)(F)F)cc2Cl)CC1)NC(=O)NCc1ccccc1 > 76.9 µM
O=C(Nc1ccc2ccccc2c1)c1cnccn1 > 76.9 µM
CCOc1ccccc1OCC(=O)O > 76.9 µM
Cc1ccc(CN2CCN(CC(=O)N3CCc4ccccc4C3)C2=O)cc1 > 76.9 µM
CCCCCCC(=O)Nc1ccc(Cl)cn1 > 76.9 µM
COc1ccc(CN2CCN(C(=O)CN3C(=O)C4C5C=CC(C5)C4C3=O)CC2)c(OC)c1OC (stereo not drawn) > 76.9 µM
CCOC(=O)c1ccc(COC(=O)c2cc3ccccc3oc2=O)o1 > 76.9 µM
COC(=O)C1=C(N)Oc2cc(C)n(Cc3ccncc3)c(=O)c2C1c1cccnc1 (stereo not drawn) > 76.9 µM
CCN(CC)S(=O)(=O)c1csc(C(=O)Nc2ccccn2)c1 > 76.9 µM
Nc1nc(SCc2ccccc2)ns1 > 76.9 µM
COC(=O)c1c(C(=O)OC)c2ccncn2c1Cl > 76.9 µM
CCc1cc(=O)oc2cc3oc(C)c(C)c3cc12
CC1(C(=O)NC2CCCCCCC2)CCC(=O)N1Cc1cccnc1 (stereo not drawn) > 76.9 µM
COc1ccc(OC)c(C2=NOC(C(=O)NCc3ccccn3)C2)c1 (stereo not drawn) > 76.9 µM
COc1cc2c(=O)n(Cc3ccco3)c(=O)n(CC(=O)c3ccc(Br)cc3)c2cc1OC > 76.9 µM
CCC(=O)N1CCN(c2ccccc2NC(=O)COc2ccccc2Cl)CC1 > 76.9 µM
O=C(NC1CCCCCC1)c1nc2ncccn2n1 > 76.9 µM
CCCCOC(=O)C1=C(C)Nc2nnnn2C1c1ccc(OC)c(OC)c1OC (stereo not drawn) > 76.9 µM
Cc1n[nH]c(C)c1S(=O)(=O)N1CCCC(C(=O)N2CCN(c3ccc(Cl)cc3)CC2)C1 (stereo not drawn) > 76.9 µM
CC(C)(C)c1ccc(OCC(=O)NCc2ccco2)cc1 > 76.9 µM
Cc1cc(N2CCN(C(=O)c3ccco3)CC2)n2nc(-c3cccc(F)c3)cc2n1 > 76.9 µM
C=CCn1c(SCC(=O)Nc2ccc(C(=O)OCC)cc2)nnc1-c1cccs1 > 76.9 µM
Cc1occc1C(=O)Nc1ccccc1NC(=O)c1ccoc1C > 76.9 µM
CCOC(=O)c1cc2c(=O)n3cccc(C)c3nc2n(CCc2ccc(OC)c(OC)c2)c1=N > 76.9 µM
COc1ccc(-c2ccc(-c3noc(C)n3)c(OC)n2)cc1 > 76.9 µM
O=C(CCc1nc2ccccc2c(=O)[nH]1)NC1CCN(Cc2ccccc2)CC1 > 76.9 µM
Cc1cccc2sc(NC(=O)CCNS(=O)(=O)c3cccc4nonc34)nc12 > 76.9 µM
O=C(COc1ccc(S(=O)(=O)NCc2ccccc2)cc1Cl)N1CCOCC1
Cc1cccc(Cn2cnc3c(nnn3Cc3ccc(Cl)cc3)c2=O)c1 > 76.9 µM
CC(=O)c1cccc(NC(=O)N2C3CCC2CC(O)(c2cccnc2)C3)c1 (stereo not drawn) > 76.9 µM
N#Cc1ccc(-c2ccco2)nc1SCc1ccccc1 > 76.9 µM
CCn1c(=O)n(CC(=O)Nc2cccc(OC)c2)c(=O)c2ccccc21
Cc1cccc(-c2nc(CN3CCCC(C(=O)NC4CCCC4)C3)c(C)o2)c1 (stereo not drawn)
Cc1ccc(C(C(=O)NC2CCCCC2)N(CC2CCCO2)C(=O)CNC(=O)c2ccco2)cc1 (stereo not drawn) > 76.9 µM
CCC1(C(=O)OC)NC(c2ccccc2OC)C2C(=O)N(C)C(=O)C21 (stereo not drawn) > 76.9 µM
CCC(C)(C)n1nnnc1C(c1cc2cc3c(cc2[nH]c1=O)OCO3)N1CCN(C)CC1 (stereo not drawn) > 76.9 µM
COc1cc(Cn2c(C(=O)O)cc3sccc32)cc(OC)c1OC > 76.9 µM

— PubChem BioAssay AID360 (National Center for Advancing Translational Sciences (NCATS), 2006)
